# The other results are listed elsewhere or left out.
# Molecular target: no compound (DMSO)
# Assay: log2 fold change of degron read counts, EGFP-low vs EGFP+ sorted cells; higher = lower degron-EGFP level without compound (poor expression or instability)
# Conditions: compound: DMSO control; 18 h
# 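Further: jurkat cells carrying a lentiviral library of mutant zinc finger degrons fused to EGFP plus mCherry, mCherry+ cells FACS sorted, degron abundance counted by next-generation sequencing.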
row,Sequence,log2 fold change of degron read counts
1,FMCDVCGAEFTQKGNLLRHIKL,-2.19
2,LFCNQCGFCCTQKGNLLRHIKL,1.47
3,FACPQCGARFTQKGNLLRHIKL,-0.407
4,FLCNQCGRDFTQKGNLLRHIKL,-0.188
5,FNCNICGATFTQKGNLLRHIKL,-0.706
6,FLCEICGAGFTQKGNLLRHIKL,-1.53
7,FMCDVCGATFTQKGNLLRHIKL,-1.67
8,FACNQCGAIFTQKGNLLRHIKL,-0.561
9,FACDVCGANFTQKGNLLRHIKL,-1.67
10,FVCEVCGAFFTQKGNLLRHIKL,-0.69
11,FTCPICGACFTQKGNLLRHIKL,-0.299
12,FTCNICGATFTQKGNLLRHIKL,-0.53
13,FACDQCGAYFTQKGNLLRHIKL,-0.686
14,FRCNVCGAKFTQKGNLLRHIKL,-0.776
15,FQCEVCGAYFTQKGNLLRHIKL,-0.532
16,FICSVCGHDFTQKGNLLRHIKL,-2.59
17,FACNQCGRLFTQKGNLLRHIKL,0.0249
18,FMCNQCGHDFTQKGNLLRHIKL,-0.736
19,FNCNVCGAPFTQKGNLLRHIKL,0.0311
20,FICPICGRYFTQKGNLLRHIKL,0.695
21,FYCDVCGAMFTQKGNLLRHIKL,-0.811
22,FLCSVCGHTFTQKGNLLRHIKL,-1.61
23,FHCNQCGHVFTQKGNLLRHIKL,-0.415
24,FKCSVCGHDFTQKGNLLRHIKL,-1.4
25,FRCEICGHMFTQKGNLLRHIKL,-0.566

row,Sequence,log2 fold change of degron read counts
1,FWCNQCGAAFTQKGNLLRHIKL,0.551
2,FICEICGAPFTQKGNLLRHIKL,-1.1
3,LDCEICGFHCTQKGNLLRHIKL,0.508
4,FICNQCGRRFTQKGNLLRHIKL,-0.0404
5,FSCNQCGAFFTQKGNLLRHIKL,0.409
6,FFCPVCGAFFTQKGNLLRHIKL,1.36
7,FNCPVCGANFTQKGNLLRHIKL,0.389
8,FGCEICGHCFTQKGNLLRHIKL,-0.155
9,FWCNVCGASFTQKGNLLRHIKL,0.496
10,LYCPICGFCCTQKGNLLRHIKL,1.38
11,FHCDQCGATFTQKGNLLRHIKL,-2.83
12,FICDQCGAKFTQKGNLLRHIKL,-1.2
13,FDCSVCGHEFTQKGNLLRHIKL,-0.929
14,FSCNQCGHAFTQKGNLLRHIKL,-0.0533
15,FSCEICGHWFTQKGNLLRHIKL,0.345
16,FNCNQCGHDFTQKGNLLRHIKL,-0.343
17,FWCEICGAWFTQKGNLLRHIKL,0.658
18,FNCNICGANFTQKGNLLRHIKL,-0.745
19,FTCDICGAKFTQKGNLLRHIKL,-1.08
20,FGCEICGHSFTQKGNLLRHIKL,-1.17
21,FNCNQCGADFTQKGNLLRHIKL,-0.62
22,FACDQCGAVFTQKGNLLRHIKL,-0.585
23,FMCPVCGAEFTQKGNLLRHIKL,-1.05
24,FDCPICGAKFTQKGNLLRHIKL,-0.585
25,FSCSVCGHGFTQKGNLLRHIKL,-0.343

# Source: the supplement of paper PMC12645437, “Orthogonal IMiD-Degron Pairs Induce Selective Protein Degradation in Cells” (ACS Chemical Biology, 2025)
